Source: the supplement of paper PMC3334620
In all, about 33,000 sequences were measured (“E-score (-0.5 to 0.5)”: median about -0.021, highest 2% from about 0.32 on). Some of the results follow.

target: T1, Zap1 (UniProt P47043); experiment: PBM E-score (8-mer binding enrichment) (E-score (-0.5 to 0.5)); higher = stronger / more preferred TF binding; most listed sequences are background and not binding sites; details: protein concentration: 200 nM; construct: GST-full length
T1 sequence: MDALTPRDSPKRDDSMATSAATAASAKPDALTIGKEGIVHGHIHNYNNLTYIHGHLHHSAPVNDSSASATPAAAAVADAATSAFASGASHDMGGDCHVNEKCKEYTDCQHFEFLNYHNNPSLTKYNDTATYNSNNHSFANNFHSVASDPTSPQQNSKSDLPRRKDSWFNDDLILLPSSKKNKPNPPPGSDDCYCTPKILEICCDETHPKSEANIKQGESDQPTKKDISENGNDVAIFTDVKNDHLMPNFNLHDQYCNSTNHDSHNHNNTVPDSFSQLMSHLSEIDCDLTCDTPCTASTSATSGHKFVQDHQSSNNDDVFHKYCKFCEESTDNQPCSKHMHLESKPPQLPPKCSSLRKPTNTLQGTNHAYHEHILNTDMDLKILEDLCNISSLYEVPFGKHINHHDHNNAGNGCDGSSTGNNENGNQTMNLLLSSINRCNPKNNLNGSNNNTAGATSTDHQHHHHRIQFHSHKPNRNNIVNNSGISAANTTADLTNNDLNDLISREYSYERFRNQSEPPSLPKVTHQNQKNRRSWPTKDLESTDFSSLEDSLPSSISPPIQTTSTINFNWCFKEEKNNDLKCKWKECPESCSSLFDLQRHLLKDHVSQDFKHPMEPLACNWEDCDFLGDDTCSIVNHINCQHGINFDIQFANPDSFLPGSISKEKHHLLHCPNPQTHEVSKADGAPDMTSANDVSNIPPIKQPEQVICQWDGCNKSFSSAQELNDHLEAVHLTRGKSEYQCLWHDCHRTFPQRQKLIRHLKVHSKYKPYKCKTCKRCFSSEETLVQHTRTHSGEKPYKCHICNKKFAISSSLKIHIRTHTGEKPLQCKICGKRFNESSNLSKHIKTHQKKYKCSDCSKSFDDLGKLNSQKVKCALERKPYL
Method in brief: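 Full-length yeast transcription factors or their DNA-binding domains, GST-tagged and expressed with PURExpress, were applied at about 100-200 nM to universal all-10-mer Agilent arrays. These arrays had been made double-stranded by primer extension on fresh or once-stripped slides. Detection used fluorescent anti-GST, normalisation used masliner, and E-scores for ungapped eight-base words pooled with reverse complements came from the Universal PBM Analysis Suite.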

| Sequence | PBM E-score |
| --- | --- |
| CGACATAC | -0.101 |
| AGTTGGAT | -0.0598 |
| AGTTACAC | 0.0701 |
| GCAGGATA | -0.0914 |
| GACGGCAC | -0.244 |
| ACACCGTG | -0.191 |
| AATGGCGA | -0.137 |
| CCGGTTGC | 0.115 |
| GTGCTTTA | -0.0608 |
| CACACATG | -0.189 |
| GAGAGCGA | -0.186 |
| AATTCGTA | 0.0679 |
| CCTTTGCC | 0.00962 |
| GGTGTGAA | 0.174 |
| CGTTGCAG | -0.0966 |
| CCTAATAG | 0.0191 |
| ACATTAGA | -0.0645 |
| GGCTTGAA | 0.00086 |
| CCAACCCG | 0.148 |
| CCTAGCTC | -0.139 |
| TAATCGAA | 0.13 |
| AGACCCTG | 0.253 |
| AACATGCA | -0.0983 |
| GGTTTTAA | 0.214 |

| Sequence | PBM E-score |
| --- | --- |
| CCACTGCA | -0.116 |
| CAAGATGG | -0.0274 |
| CAAATTGG | 0.172 |
| AAATGGGA | -0.0864 |
| GCGAAAAA | 0.179 |
| AGACGGCC | -0.15 |
| CACTTTGG | -0.0421 |
| TCGATAAA | 0.062 |
| AGACCTAC | 0.136 |
| CATCTAAG | -0.211 |
| GCCTTCAC | -0.0971 |
| ATAGGCAT | -0.124 |
| CTGTCAAA | -0.0621 |
| GTCACACA | -0.104 |
| ACTACTAT | 0.125 |
| GATGGCGC | -0.372 |
| CGTGGATC | -0.0643 |
| ACGTAAGA | -0.156 |
| TAATTCAA | 0.176 |
| GACTCGAA | -0.162 |
| ATCGGGCC | -0.229 |
| GCGAGTCC | -0.089 |
| CTGTCGCC | -0.232 |
| CGCCTGGA | -0.198 |

| Sequence | PBM E-score |
| --- | --- |
| GAGCTCTA | -0.0486 |
| CTTGAGCC | -0.111 |
| AATCAACA | 0.178 |
| ATCAACAC | 0.0908 |
| CTTCATAC | 0.0338 |
| ACATCTAG | -0.0681 |
| TCTAGACA | 0.0418 |
| CTGAAAGA | 0.094 |
| CCGTGCGA | 0.0277 |
| AGTGGAAA | -0.0686 |
| AAGCAGAC | -0.281 |
| CGAGACCG | 0.0626 |
| GGCAATAC | -0.00913 |
| GCCTTCGA | -0.148 |
| ACCATGGC | 0.229 |
| CTTATCCA | -0.0217 |
| AAAAGATA | 0.206 |
| CCATCCCG | -0.197 |
| AACCGATA | 0.262 |
| TATCTCAA | 0.0995 |
| AACTCCTG | -0.191 |
| GATTTGCA | 0.00632 |
| AGTTAGGC | 0.0637 |
| AACGTCAT | -0.0998 |

| Sequence | PBM E-score |
| --- | --- |
| AGCATCAA | 0.0855 |
| ACGTCCGG | -0.094 |
| CACTTGTC | -0.185 |
| GGGCTTTA | -0.221 |
| ACGCTGAA | -0.0692 |
| AAGACCGT | 0.0736 |
| GTCCAACA | -0.0358 |
| CTTATGGC | 0.0876 |
| CTAGCCGA | -0.221 |
| TAACTCCA | -0.00455 |
| GCGCCTCC | -0.196 |
| CTCGCTGC | -0.17 |
| AGTCCCGA | -0.0918 |
| ATGGGATG | -0.0788 |
| ACCTAAGG | 0.185 |
| ATTTTCGC | -0.0813 |
| CTGGCACA | -0.0803 |
| CAAATGAC | -0.0285 |
| AATAGCAC | -0.224 |
| GCGTAGTA | -0.275 |
| GTCATCAA | 0.0375 |
| AACTCAAC | 0.16 |
